We go through 17 molecules from US20230250147A1, “GLP-1R AGONISTIC PEPTIDES WITH REDUCED ACTIVITY” (SANOFI, priority 2020, published 2023).

The labels stand for the following.
T1: Mouse GLP-1R (Mus musculus, UniProt O35659)
T1 construct: expressed in transfected cells; host or cells: HEK-293
T1 sequence (O35659 22-463): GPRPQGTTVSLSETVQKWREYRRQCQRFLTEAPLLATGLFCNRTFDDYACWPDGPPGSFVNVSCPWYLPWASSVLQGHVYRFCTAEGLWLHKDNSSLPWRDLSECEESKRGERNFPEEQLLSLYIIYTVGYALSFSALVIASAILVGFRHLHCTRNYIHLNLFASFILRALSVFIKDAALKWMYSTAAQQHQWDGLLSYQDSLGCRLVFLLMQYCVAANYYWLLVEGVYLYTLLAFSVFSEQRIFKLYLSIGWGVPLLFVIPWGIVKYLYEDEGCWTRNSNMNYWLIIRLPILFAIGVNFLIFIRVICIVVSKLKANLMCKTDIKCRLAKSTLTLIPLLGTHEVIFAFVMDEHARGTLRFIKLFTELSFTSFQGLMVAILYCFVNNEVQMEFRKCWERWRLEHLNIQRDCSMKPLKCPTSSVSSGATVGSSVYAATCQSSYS

B1: 228 (protein)
chain: GHGEGTFTSDKSKQLEEEAVRLFIEWLKAGGPKKIRYSAEAAAKEAAAKEAAAKEAAKALEAEAAKEAAKEAAKEAAKAGGG[… human IgG1 Fc with changes …]GGGSGSAHPIPDSSPLLQFGGQVRQRYLYTDDACQTEAHLEIREDGTVGGAADQSPESLLQLKALKPGVIQILGVKTSRFLCQRPDGALYGSLHFDPEACSFRELLLEDGYNVYQSEAHGLPLHLPGCKSPHRDPAPRGPARFLPLPGLPPAPPEPPGILAPQPPDVGSSDPLSMVYPSQGRSPSYAS
modifications: Fusion Protein
B2: 217 (protein)
chain: YSEGTFTSDLSILCEKRAVHEFIEWLIAGGPSSGKPPPKPGCGSGGGGGSGGGGSGGGGGA[… human IgG1 Fc with changes …]GGGSGSAHPIPDSSPLLQFGGQVRQRYLYTDDACQTEAHLEIREDGTVGGAADQSPESLLQLKALKPGVIQILGVKTSRFLCQRPDGALYGSLHFDPEACSFRELLLEDGYNVYQSEAHGLPLHLPGCKSPHRDPAPRGPARFLPLPGLPPAPPEPPGILAPQPPDVGSSDPLSMVYPSQGRSPSYAS
modifications: Fusion Protein
B3: 227 (protein)
chain: GHGEGTFTSDKSKQLEEEAVRLFIEWLKAGGPKKIRYSAEAAAKEAAAKEAAAKGGG[… human IgG1 Fc with changes …]GGGSGSAHPIPDSSPLLQFGGQVRQRYLYTDDACQTEAHLEIREDGTVGGAADQSPESLLQLKALKPGVIQILGVKTSRFLCQRPDGALYGSLHFDPEACSFRELLLEDGYNVYQSEAHGLPLHLPGCKSPHRDPAPRGPARFLPLPGLPPAPPEPPGILAPQPPDVGSSDPLSMVYPSQGRSPSYAS
modifications: Fusion Protein
B4: 221 (protein)
chain: GHGEGTFTSDKSKQLEEEAVRLFIEWLKAGPAPAPAEAAAKEAAAKPAPAPA[… human IgG1 Fc with changes …]GGGSGSAHPIPDSSPLLQFGGQVRQRYLYTDDACQTEAHLEIREDGTVGGAADQSPESLLQLKALKPGVIQILGVKTSRFLCQRPDGALYGSLHFDPEACSFRELLLEDGYNVYQSEAHGLPLHLPGCKSPHRDPAPRGPARFLPLPGLPPAPPEPPGILAPQPPDVGSSDPLSMVYPSQGRSPSYAS
modifications: Fusion Protein
B5: 223 (protein)
chain: GHGEGTFTSDKSKQLEEEAVRLFIEWLKAGGAEAAAKEAAAKEAAAKEAAKALEAEAAKEAAKEAAKEAAKAGGG[… human IgG1 Fc with changes …]GGGSGSAHPIPDSSPLLQFGGQVRQRYLYTDDACQTEAHLEIREDGTVGGAADQSPESLLQLKALKPGVIQILGVKTSRFLCQRPDGALYGSLHFDPEACSFRELLLEDGYNVYQSEAHGLPLHLPGCKSPHRDPAPRGPARFLPLPGLPPAPPEPPGILAPQPPDVGSSDPLSMVYPSQGRSPSYAS
modifications: Fusion Protein
B6: 115 (protein)
chain: YGEGTFTSDKSQLLEKRLAHLFIEWLIKGGHSSIKPPPKGGGGGGGSGGGGSGGGGSA[… human IgG4 Fc with changes …]GGGSGSAHPIPDSSPLLQFGGQVRQRYLYTDDACQTEAHLEIREDGTVGGAADQSPESLLQLKALKPGVIQILGVKTSRFLCQRPDGALYGSLHFDPEACSFRELLLEDGYNVYQSEAHGLPLHLPGCKSPHRDPAPRGPARFLPLPGLPPAPPEPPGILAPQPPDVGSSDPLSMVGSQGRSPSYAS
modifications: Fusion Protein
B7: 118 (protein)
chain: HGEGTFTSDKSQLLEKRLAHLFIEWLIAGGHSKIKYPPKGGGGGGGSGGGGSGGGGSA[… human IgG4 Fc with changes …]GGGSGSAHPIPDSSPLLQFGGQVRQRYLYTDDACQTEAHLEIREDGTVGGAADQSPESLLQLKALKPGVIQILGVKTSRFLCQRPDGALYGSLHFDPEACSFRELLLEDGYNVYQSEAHGLPLHLPGCKSPHRDPAPRGPARFLPLPGLPPAPPEPPGILAPQPPDVGSSDPLSMVGSQGRSPSYAS
modifications: Fusion Protein
B8: 121 (protein)
chain: HGEGTFTSDKSQLLEKRLAHLFIEWLIAGGPSSGRYPPKGGGGGGGSGGGGSGGGGSA[… human IgG4 Fc with changes …]GGGSGSAHPIPDSSPLLQFGGQVRQRYLYTDDACQTEAHLEIREDGTVGGAADQSPESLLQLKALKPGVIQILGVKTSRFLCQRPDGALYGSLHFDPEACSFRELLLEDGYNVYQSEAHGLPLHLPGCKSPHRDPAPRGPARFLPLPGLPPAPPEPPGILAPQPPDVGSSDPLSMVGSQGRSPSYAS
modifications: Fusion Protein
B9: 122 (protein)
chain: HGEGTFTSDKSQLLEKRLAHLFIEWLIAGGHSSIKPPPKGGGGGGGSGGGGSGGGGSA[… human IgG4 Fc with changes …]GGGSGSAHPIPDSSPLLQFGGQVRQRYLYTDDACQTEAHLEIREDGTVGGAADQSPESLLQLKALKPGVIQILGVKTSRFLCQRPDGALYGSLHFDPEACSFRELLLEDGYNVYQSEAHGLPLHLPGCKSPHRDPAPRGPARFLPLPGLPPAPPEPPGILAPQPPDVGSSDPLSMVGSQGRSPSYAS
modifications: Fusion Protein
B10: 116 (protein)
chain: HGEGTFTSDKSQLLEKRLAHLFIEWLIAGGPSKGKPPPKGGGGGGGSGGGGSGGGGSA[… human IgG4 Fc with changes …]GGGSGSAHPIPDSSPLLQFGGQVRQRYLYTDDACQTEAHLEIREDGTVGGAADQSPESLLQLKALKPGVIQILGVKTSRFLCQRPDGALYGSLHFDPEACSFRELLLEDGYNVYQSEAHGLPLHLPGCKSPHRDPAPRGPARFLPLPGLPPAPPEPPGILAPQPPDVGSSDPLSMVGSQGRSPSYAS
modifications: Fusion Protein
B11: 123 (protein)
chain: HGEGTFTSDKSKLLEKRLAHLFIEWLIKGGHSSIKPPPKGGGGGGGSGGGGSGGGGSA[… human IgG4 Fc with changes …]GGGSGSAHPIPDSSPLLQFGGQVRQRYLYTDDACQTEAHLEIREDGTVGGAADQSPESLLQLKALKPGVIQILGVKTSRFLCQRPDGALYGSLHFDPEACSFRELLLEDGYNVYQSEAHGLPLHLPGCKSPHRDPAPRGPARFLPLPGLPPAPPEPPGILAPQPPDVGSSDPLSMVGSQGRSPSYAS
modifications: Fusion Protein
B12: 222 (protein)
chain: GHGEGTFTSDKSKQLEEEAVRLFIEWLKAGGAEAAAKEAAAKEAAAKGGG[… human IgG1 Fc with changes …]GGGSGSAHPIPDSSPLLQFGGQVRQRYLYTDDACQTEAHLEIREDGTVGGAADQSPESLLQLKALKPGVIQILGVKTSRFLCQRPDGALYGSLHFDPEACSFRELLLEDGYNVYQSEAHGLPLHLPGCKSPHRDPAPRGPARFLPLPGLPPAPPEPPGILAPQPPDVGSSDPLSMVYPSQGRSPSYAS
modifications: Fusion Protein
B13: 219 (protein)
chain: GHGEGTFTSDKSKQLEEEAVRLFIEWLKAGGGGGGGGGSGGGGSGGGGSA[… human IgG1 Fc with changes …]GGGSGSAHPIPDSSPLLQFGGQVRQRYLYTDDACQTEAHLEIREDGTVGGAADQSPESLLQLKALKPGVIQILGVKTSRFLCQRPDGALYGSLHFDPEACSFRELLLEDGYNVYQSEAHGLPLHLPGCKSPHRDPAPRGPARFLPLPGLPPAPPEPPGILAPQPPDVGSSDPLSMVYPSQGRSPSYAS
modifications: Fusion Protein
B14: 220 (protein)
chain: GHGEGTFTSDKSKQLEEEAVRLFIEWLKAGGPAPAPAPAPAPAGGG[… human IgG1 Fc with changes …]GGGSGSAHPIPDSSPLLQFGGQVRQRYLYTDDACQTEAHLEIREDGTVGGAADQSPESLLQLKALKPGVIQILGVKTSRFLCQRPDGALYGSLHFDPEACSFRELLLEDGYNVYQSEAHGLPLHLPGCKSPHRDPAPRGPARFLPLPGLPPAPPEPPGILAPQPPDVGSSDPLSMVYPSQGRSPSYAS
modifications: Fusion Protein
B15: 226 (protein)
chain: GHGEGTFTSDKSKQLEEEAVRLFIEWLKAGGPKKIRYSPAPAPAEAAAKEAAAKPAPAPA[… human IgG1 Fc with changes …]GGGSGSAHPIPDSSPLLQFGGQVRQRYLYTDDACQTEAHLEIREDGTVGGAADQSPESLLQLKALKPGVIQILGVKTSRFLCQRPDGALYGSLHFDPEACSFRELLLEDGYNVYQSEAHGLPLHLPGCKSPHRDPAPRGPARFLPLPGLPPAPPEPPGILAPQPPDVGSSDPLSMVYPSQGRSPSYAS
modifications: Fusion Protein
B16: 224 (protein)
chain: GHGEGTFTSDKSKQLEEEAVRLFIEWLKAGGPKKIRYS[… human IgG1 Fc with changes …]GGGSGSAHPIPDSSPLLQFGGQVRQRYLYTDDACQTEAHLEIREDGTVGGAADQSPESLLQLKALKPGVIQILGVKTSRFLCQRPDGALYGSLHFDPEACSFRELLLEDGYNVYQSEAHGLPLHLPGCKSPHRDPAPRGPARFLPLPGLPPAPPEPPGILAPQPPDVGSSDPLSMVYPSQGRSPSYAS
modifications: Fusion Protein
B17: 225 (protein)
chain: GHGEGTFTSDKSKQLEEEAVRLFIEWLKAGGPKKIRYSPAPAPAPAPAPAGGG[… human IgG1 Fc with changes …]GGGSGSAHPIPDSSPLLQFGGQVRQRYLYTDDACQTEAHLEIREDGTVGGAADQSPESLLQLKALKPGVIQILGVKTSRFLCQRPDGALYGSLHFDPEACSFRELLLEDGYNVYQSEAHGLPLHLPGCKSPHRDPAPRGPARFLPLPGLPPAPPEPPGILAPQPPDVGSSDPLSMVYPSQGRSPSYAS
modifications: Fusion Protein

For one experiment, the target named is T2, Human GLP-1R (Homo sapiens, UniProt P43220).
T2 construct: expressed in transfected cells; host or cells: HEK-293
T2 sequence (P43220 24-463): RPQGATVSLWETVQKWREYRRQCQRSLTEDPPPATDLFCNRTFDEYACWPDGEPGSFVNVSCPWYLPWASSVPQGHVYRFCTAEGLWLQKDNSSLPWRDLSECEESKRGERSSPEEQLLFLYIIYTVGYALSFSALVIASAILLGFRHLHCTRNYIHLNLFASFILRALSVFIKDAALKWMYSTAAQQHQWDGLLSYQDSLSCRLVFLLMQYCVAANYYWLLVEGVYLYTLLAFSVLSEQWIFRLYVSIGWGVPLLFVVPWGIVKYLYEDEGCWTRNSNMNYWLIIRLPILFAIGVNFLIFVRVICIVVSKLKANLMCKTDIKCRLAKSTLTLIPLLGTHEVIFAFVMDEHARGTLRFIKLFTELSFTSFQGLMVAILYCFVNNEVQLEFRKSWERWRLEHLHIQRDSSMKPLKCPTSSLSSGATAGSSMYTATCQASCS
The experiment is described as follows: HTRF cAMP assay in HEK-293 cells, human GLP-1R. It counts as cell-based. On the technique in general: Time-resolved FRET reads energy transfer from a long-lived donor to a nearby acceptor.
As for B1, the 50% effective concentration (EC50) (in general, the concentration at which the effect is half-maximal) worked out at 49.2 pM. This counts as picomolar.
Take B2: the half-maximal effective concentration (EC50) was found to be 7.62 pM. Against the preceding molecule, the EC50 is about 6.5-fold lower.
Same read-out and setting: then B3, with 61.4 pM; and B4, with 202 pM; and B5, with 80.8 pM.
As for B6, the EC50 came out at 92.2 pM.
On the same count and under the same terms, then B7, with 18.3 pM; and B8, with 11.9 pM.
With B9, the concentration for a half-maximal effect (EC50) was found to be 14.5 pM.
B10 displayed a concentration giving a half-maximal response (EC50) of 10.6 pM.
As for B11, the midpoint of the response, the EC50, lay at 12.7 pM.
Regarding B12, the concentration for a half-maximal effect (EC50) was 327 pM. Against the preceding molecule, the EC50 is about 26-fold higher.
Turning to B13, a half-maximal effect (EC50) was put at 222 pM.
In turn, B14 registered an EC50 of 95.5 pM. This EC50 lies about 2.3-fold lower than the previous one.
Regarding B15, the 50% effective concentration (EC50) was 64.1 pM.
B16 displayed a concentration giving a half-maximal response (EC50) of 227 pM.
The molecule B17 returned an EC50 of 128 pM.

The target of the next experiment is T1, Mouse GLP-1R. Put plainly: HTRF cAMP assay in HEK-293 cells, mouse GLP-1R. It counts as cell-based. As to the method: Recombinant HEK-293 cells were grown in T175 culture flasks placed at 37° C. to near confluence in medium (DMEM with 10% FBS) and collected in 2 mL vials in cell culture medium containing 10% DMSO in concentrations of 1-5×10^7 cells/mL. Each vial contained 1.8 mL cell suspension. The vials were slowly frozen to −80° C. in an isopropanol chamber, and then transferred to liquid nitrogen for long term storage.
Prior to their use, frozen cells were thawed quickly at 37° C., washed with 20 mL cell buffer (1×HBSS; 20 mM HEPES, 0.1% BSA) and centrifuged for 5 minutes at 900 rpm. Cells were resuspended in assay buffer (cell buffer plus 2 mM IBMX) and adjusted to a cell density of 1×10^6 cells/mL. For measurement, 5 μL cell suspension (final 5×10^3 cells/well) and 5 μL of test compound were added to a well of a 384-well plate, followed by incubation for 30 minutes at room temperature. […] The cAMP content of cells was determined using a kit from Cisbio Corp. (cat. no. 62AM4PEC) based on Homogenous Time Resolved Fluorescence (HTRF).
With B1, a half-maximal response (EC50) required 30.1 pM. In other words, the picomolar range.
B2 had a concentration for a half-maximal effect (EC50) of 5.39 pM. This EC50 lies about 5.6-fold lower than the previous one.
B3 showed a half-maximal effective concentration (EC50) of 40.8 pM. This EC50 is about 7.6-fold higher than that of the molecule before.
As for B4, the EC50 amounted to 162 pM.
In turn, B5 had a concentration for a half-maximal effect (EC50) of 79.5 pM. This EC50 is about 2-fold lower than that of the molecule before.
B12 returned a concentration giving a half-maximal response (EC50) of 200 pM.
B13 came in with a half-maximal effective concentration (EC50) of 422 pM. This EC50 is about 2.1-fold higher than that of the molecule before.
In the case of B14, the EC50 turned out to be 110 pM. Against the preceding molecule, the EC50 is about 3.8-fold lower.
In turn, B15 showed an EC50 of 43.5 pM. This EC50 is about 2.5-fold lower than that of the molecule before.
Still for that read-out and setting: then B16, with 251 pM; and B17, with 61.6 pM.
